Data published in US20140329275A1, “BIOCATALYSIS CELLS AND METHODS” (REGENTS OF THE UNIVERSITY OF MINNESOTA, priority 2011, published 2014).

Legend:
CC(C)CC(=O)C(=O)O = test: purified protein, by the assay type; conditions: other: pH 6.8, coupled with PadA, 25 nM IPDC, 30.0 °C
CC(C)C(=O)C(=O)O = test: purified protein, by the assay type; conditions: other: pH 6.8, coupled with PadA, 25 nM IPDC, 30.0 °C

Substance: IPDC (Salmonella enterica subsp. enterica serovar Typhimurium str. LT2)
- Km (CC(C)CC(=O)C(=O)O): 216 µM
- kcat (CC(C)CC(=O)C(=O)O): 4.9 s⁻¹
- Km (CC(C)C(=O)C(=O)O): 1528 µM
- kcat (CC(C)C(=O)C(=O)O): 7.9 s⁻¹
